This is an account of results in article PMC4336329 (PLoS ONE, 2015).

Screen size: about 310,000 compounds; about 14,000 (4.5%) showed an effect of 50% or more. The effect is printed as a negative number. Some of the results follow.
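Note: peak tail current of the secondary pulse compared with the same well before compound.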

The test deals with human ether-à-go-go-related gene (hERG) potassium channel (human, UniProt Q12809). The experiment in a line: primary screen, population patch clamp on CHO cells stably expressing hERG.
human ether-à-go-go-related gene (hERG) potassium channel, sequence (Q12809 whole entry, looked up): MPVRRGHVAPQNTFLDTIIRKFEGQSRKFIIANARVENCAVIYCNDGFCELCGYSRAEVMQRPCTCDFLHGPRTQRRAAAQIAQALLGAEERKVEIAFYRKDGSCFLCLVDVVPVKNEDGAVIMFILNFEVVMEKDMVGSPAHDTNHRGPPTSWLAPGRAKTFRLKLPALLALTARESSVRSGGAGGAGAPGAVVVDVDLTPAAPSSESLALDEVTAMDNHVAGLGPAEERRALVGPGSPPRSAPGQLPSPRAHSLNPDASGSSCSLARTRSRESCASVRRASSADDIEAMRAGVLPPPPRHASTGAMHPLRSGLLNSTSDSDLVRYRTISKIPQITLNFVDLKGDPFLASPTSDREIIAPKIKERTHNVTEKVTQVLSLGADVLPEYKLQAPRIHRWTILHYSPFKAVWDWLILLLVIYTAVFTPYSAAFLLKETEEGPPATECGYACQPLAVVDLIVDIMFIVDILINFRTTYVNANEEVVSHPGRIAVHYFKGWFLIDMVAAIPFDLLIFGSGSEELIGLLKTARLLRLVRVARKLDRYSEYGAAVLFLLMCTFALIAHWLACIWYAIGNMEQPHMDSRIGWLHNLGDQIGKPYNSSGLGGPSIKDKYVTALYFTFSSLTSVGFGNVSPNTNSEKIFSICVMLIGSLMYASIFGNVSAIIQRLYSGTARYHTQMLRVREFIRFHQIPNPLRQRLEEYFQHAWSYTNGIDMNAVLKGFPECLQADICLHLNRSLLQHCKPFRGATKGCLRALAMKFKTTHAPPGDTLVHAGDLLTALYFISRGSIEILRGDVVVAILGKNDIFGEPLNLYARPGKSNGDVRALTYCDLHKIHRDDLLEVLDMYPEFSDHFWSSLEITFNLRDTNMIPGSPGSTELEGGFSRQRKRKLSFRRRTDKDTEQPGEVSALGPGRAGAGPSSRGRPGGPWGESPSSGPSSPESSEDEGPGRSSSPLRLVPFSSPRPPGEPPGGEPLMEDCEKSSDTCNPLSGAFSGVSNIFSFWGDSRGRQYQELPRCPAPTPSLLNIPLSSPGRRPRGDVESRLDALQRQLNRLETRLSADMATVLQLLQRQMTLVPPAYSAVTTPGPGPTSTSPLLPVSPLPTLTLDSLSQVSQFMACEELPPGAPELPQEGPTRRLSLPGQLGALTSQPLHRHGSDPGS
In the case of `Cc1sc(NC(=O)CCCC(=O)O)c(C(N)=O)c1-c1ccccc1`, the “hERG current change (%, negative = inhibition) at 10uM” value is reported as 15.8%.

Take `Cc1ccc(C(=O)Nc2cc3ccccc3oc2=O)cc1`: the “hERG current change (%, negative = inhibition) at 10uM” value is 9.74%.

Consider `O=C1CCCCN1CC(=O)N1CCCC(Nc2ccc(F)c(F)c2)C1` (centres unmarked), for which the “hERG current change (%, negative = inhibition) at 10uM” value was -0.0134%.

As to `COc1ccc(NC(=O)c2cccc(C(=O)Nc3ccc(OC)cc3)n2)cc1`, the “hERG current change (%, negative = inhibition) at 10uM” value amounted to 8.48%.

Regarding `Cc1ccc(S(=O)(=O)NCCc2cccs2)cc1`, the “hERG current change (%, negative = inhibition) at 10uM” value was -15.3%.

In the case of `CC1C(=O)Nc2ccc(S(=O)(=O)N3CCc4ccccc4C3)cc2NC1=O` (centres unmarked), the “hERG current change (%, negative = inhibition) at 10uM” value is -11.3%.

On to `CC(C)NS(=O)(=O)c1ccc(OCC(=O)NC(C)c2ccccc2)cc1` (centres unmarked), for which the “hERG current change (%, negative = inhibition) at 10uM” value is reported as -18.3%.

On to `O=C(CCC(=O)N1CCN(C2CCCC2)CC1)Nc1nnc(C(F)(F)F)s1`, for which the “hERG current change (%, negative = inhibition) at 10uM” value is 5.49%.

`O=C(Nc1ccccc1)N1CCN(c2nc(-c3ccccc3)ns2)CC1`: the “hERG current change (%, negative = inhibition) at 10uM” value is reported as -27.8%.

With `CC(Sc1nnnn1C1CC1)C(=O)N1CC(=O)Nc2ccccc21` (centres unmarked), the “hERG current change (%, negative = inhibition) at 10uM” value came out at 20.2%.

Regarding `COC(=O)CCCC[C@H]1SC[C@H]2NC(=O)N[C@]21O`, the “hERG current change (%, negative = inhibition) at 10uM” value came to 3.84%.

Turning to `COc1cccc(-n2nnc3c(=O)n(Cc4ccc(Br)cc4)cnc32)c1`, the “hERG current change (%, negative = inhibition) at 10uM” value is listed as 1.87%.

On to `CCOc1c2ccc(C(=O)NCC34CC5CC(CC(C5)C3)C4)cc2nn1CC`, for which the “hERG current change (%, negative = inhibition) at 10uM” value is given as -22.9%.

As to `COc1ccc(Cn2c(-c3ccc(Cl)cc3)c[n+]3ccccc23)cc1.[Br-]`, the “hERG current change (%, negative = inhibition) at 10uM” value is -29%.

As for `Cn1c(=O)cc(OCC(=O)NCCCN2CCN(c3ccccc3F)CC2)c2ccccc21`, the “hERG current change (%, negative = inhibition) at 10uM” value is listed as -45.4%.

Take `CCOc1nc(OCC)nc(N2CCC(C)CC2)n1`: the “hERG current change (%, negative = inhibition) at 10uM” value was -14.6%.

Regarding `CCCCN(C(=O)C1CCC1)c1c(N)n(CC(C)C)c(=O)[nH]c1=O`, the “hERG current change (%, negative = inhibition) at 10uM” value is 1.74%.

In the case of `O=S(=O)(CCCc1ccccc1)c1ncn[nH]1`, the “hERG current change (%, negative = inhibition) at 10uM” value was 12.5%.

For the compound `O=C(COc1ncnc2c1cnn2-c1ccccc1)Nc1ccc(S(=O)(=O)N2CCCCC2)cc1`, the “hERG current change (%, negative = inhibition) at 10uM” value is -3.63%.

As for `CCCCCCCCCCOC(=O)Cn1c(COc2ccc(C)cc2)[n+](C)c2ccccc21.[Cl-]`, the “hERG current change (%, negative = inhibition) at 10uM” value is -74.9%.

With `CC1CCCN(C(c2ccccc2)c2sc3ncnn3c2O)C1` (centres unmarked), the “hERG current change (%, negative = inhibition) at 10uM” value is listed as 9.19%.

With `O=C(Nc1nnc(C(F)(F)F)s1)c1ccc(N2C(=O)C3C4C=CC(C4)C3C2=O)cc1` (centres unmarked), the “hERG current change (%, negative = inhibition) at 10uM” value was determined as 5.74%.

Take `O=C(CSc1nnc(NC(=O)c2ccccc2F)s1)NCC1CCCO1` (centres unmarked): the “hERG current change (%, negative = inhibition) at 10uM” value is recorded as 4.91%.

In the case of `COc1ccc(-n2c(=S)[nH]c3cc(C(=O)N4CCN(c5ccccc5)CC4)ccc3c2=O)c(OC)c1`, the “hERG current change (%, negative = inhibition) at 10uM” value worked out at 16.3%.

Consider `CCOc1ccc(NC(=O)CN(C)C(=O)CCCOc2ccc(Cl)c(C)c2)cc1OCC`, for which the “hERG current change (%, negative = inhibition) at 10uM” value amounted to 16.2%.

On to `CC(OC(=O)c1cccc(-n2cnnn2)c1)C(=O)Nc1ccc(N(C)C)cc1` (centres unmarked), for which the “hERG current change (%, negative = inhibition) at 10uM” value came to 6.86%.

As for `N#CC1=C(N)Oc2n[nH]c(-c3ccccc3)c2C1c1ccncc1` (centres unmarked), the “hERG current change (%, negative = inhibition) at 10uM” value was 21.3%.

As for `COc1ccc(/C=c2\s/c(=C/C(=O)c3ccc(C)cc3)[nH]c2=O)cc1OC`, the “hERG current change (%, negative = inhibition) at 10uM” value is given as 20.8%.

`CCOC(=O)c1nnc(-c2ccccc2)o1`: the “hERG current change (%, negative = inhibition) at 10uM” value is given as -3.35%.

As for `O=C(Nc1ccc(C(=O)N2CCCC2)cc1)c1ccccc1Br`, the “hERG current change (%, negative = inhibition) at 10uM” value turned out to be 19.8%.

`CCN1C(=O)N(CC)C2C1N(C(C)=O)C(=O)N2C(C)=O` (centres unmarked): the “hERG current change (%, negative = inhibition) at 10uM” value is -6.42%.

As for `CC1(C)CC(N=C2C([N+](=O)[O-])=CC=C3C2=NC2(CCCCC2)N3O)CC(C)(C)N1`, the “hERG current change (%, negative = inhibition) at 10uM” value worked out at 9.59%.

Turning to `COC(=O)c1sc2nc(C)nc(SCC(=O)Nc3sccc3C(N)=O)c2c1C`, the “hERG current change (%, negative = inhibition) at 10uM” value stood at 2.33%.

For `COc1ccc(NC(=O)CCc2ccccc2)cc1S(=O)(=O)N1CCOCC1`, the “hERG current change (%, negative = inhibition) at 10uM” value is listed as -0.588%.

Consider `CCN1C(=O)/C(=C2\SC(=S)N(NC(=O)c3ccccc3O)C2=O)c2ccccc21`, for which the “hERG current change (%, negative = inhibition) at 10uM” value amounted to 4.56%.

For the compound `O=C1NCCCC2c3c(cc(Br)c(O)c3Br)OC12N1CCOCC1` (centres unmarked), the “hERG current change (%, negative = inhibition) at 10uM” value is reported as -11.7%.

On to `COc1cc2c(cc1OC)C(c1ccc(SC)cc1)CC(=O)N2` (centres unmarked), for which the “hERG current change (%, negative = inhibition) at 10uM” value is recorded as 6.96%.

On to `Cc1c(C)c(C)c(S(=O)(=O)Nc2ccc3[nH]c(=O)[nH]c3c2)c(C)c1C`, for which the “hERG current change (%, negative = inhibition) at 10uM” value is recorded as 22.1%.

As to `COc1ccc(Cl)cc1CN1C(=O)NC2(CCCCCC2)C1=O`, the “hERG current change (%, negative = inhibition) at 10uM” value is reported as 8.55%.

For `COc1ccc(C(=O)N2CCN(c3ncccn3)CC2)cc1[N+](=O)[O-]`, the “hERG current change (%, negative = inhibition) at 10uM” value is given as -2.35%.

`O=[N+]([O-])c1cc(S(=O)(=O)N2CCCCCC2)ccc1F`: the “hERG current change (%, negative = inhibition) at 10uM” value is recorded as 5.94%.

As to `O=S(=O)(Nc1cccnc1)c1ccc(Cl)cc1`, the “hERG current change (%, negative = inhibition) at 10uM” value worked out at 9.57%.

On to `COc1cccc(N2CCN(C(=O)CN(c3ccc(C)cc3)S(=O)(=O)c3c(C)n[nH]c3C)CC2)c1`, for which the “hERG current change (%, negative = inhibition) at 10uM” value is -11.8%.

Turning to `O=C(CSc1nc(-c2ccc(F)cc2)cc(C(F)(F)F)n1)NCCN1CCOCC1`, the “hERG current change (%, negative = inhibition) at 10uM” value is on record as -3.59%.

On to `COCCNc1oc(COc2cccc(C)c2)nc1C#N`, for which the “hERG current change (%, negative = inhibition) at 10uM” value is listed as -14.3%.

With `Cc1cnc(C(=O)NC(C)CCc2ccccc2)cn1` (centres unmarked), the “hERG current change (%, negative = inhibition) at 10uM” value turned out to be 24%.

Turning to `COc1ccc(NC(=S)N2CCC(NC(=O)C3CCCCC3)CC2)cc1`, the “hERG current change (%, negative = inhibition) at 10uM” value is recorded as 16.7%.

As to `O=C(CCc1nc2ccccc2c(=O)[nH]1)Nc1ccccc1N1CCCC1`, the “hERG current change (%, negative = inhibition) at 10uM” value is on record as -6.19%.

`COc1ccccc1C(=O)NCCCn1cc(Br)c(C)n1`: the “hERG current change (%, negative = inhibition) at 10uM” value is -13.5%.

For `CCCOc1ccc(Cl)cc1Nc1nc(NCCO)nc(N2CCCC2)n1`, the “hERG current change (%, negative = inhibition) at 10uM” value is on record as 19.7%.

For `O=C(CCC1CCCC1)NNC(=O)c1cc2ccccc2cc1O`, the “hERG current change (%, negative = inhibition) at 10uM” value is on record as -0.202%.

In the case of `NNC(=O)c1n[nH]c2c1CC(C1CCCCC1)CC2` (centres unmarked), the “hERG current change (%, negative = inhibition) at 10uM” value was determined as 10.8%.

`CCOC(=O)c1ccc(S(=O)(=O)N2CCN(c3ccccn3)CC2)cc1`: the “hERG current change (%, negative = inhibition) at 10uM” value is given as 8.95%.

As for `CC1CCCCC1NC(=O)C1CCC(CNS(=O)(=O)c2ccccc2)CC1` (centres unmarked), the “hERG current change (%, negative = inhibition) at 10uM” value is reported as 11.8%.

Take `S=C(NCc1ccco1)Nc1ccccc1`: the “hERG current change (%, negative = inhibition) at 10uM” value was 15.1%.

Regarding `COc1ccc(OC)c(NC(=O)CNC(=O)Cn2cnc3sc(C)cc3c2=O)c1`, the “hERG current change (%, negative = inhibition) at 10uM” value came to 5.14%.
